Measured values: patent US6800434B2, “Peptides as NS3-serine protease inhibitors of hepatitis C virus” (priority 2000, dated 2004)
Starred links: 1 amine or outer side, 2 acyl side, 3 side chain; linkers in the order of their positions; H or OH if unused. Non-standard residues stand in square brackets, D forms with d. Residues, ends and D or L forms follow the SMILES beside them. *: point of attachment. Pro(trans-4-Ph) = O=C(O)[C@@H]1C[C@@H](c2ccccc2)CN1; Oic = O=C(O)[C@@H]1C[C@@H]2CCCC[C@@H]2N1; X36 = CC(=O)CC[C@H](N[*:1])C(=O)[*:2]; Tiq1c(1S) = O=C(O)[C@H]1NCCc2ccccc21; X1 = CCC[C@H](N[*:1])C(=O)C(=O)[*:2]; X3 = CCCC(N[*:1])C(=O)C(=O)[*:2]; Cha = N[CH](CC1CCCCC1)C(=O)O; Chg = N[CH](C(=O)O)C1CCCCC1; hLeu = CC(C)CC[C@H](N)C(=O)O; Pip = O=C(O)[C@@H]1CCCCN1; OtBu = CC(C)(C)O*; NHAllyl = C=CCN*; OAll = C=CCO*; OPr = CCCO*

Molecular target: Recombinant heterodimeric HCV NS3/NS4A protease (strain 1a) (Hepatitis C virus genotype 1a, UniProt P27958)
Experiment: biochemical
Conditions: Ki* Range

Compound	Ki [nM]
CCCC(NC(=O)[C@@H]1CCCN1C(=O)[C@@H](NC(=O)[C@@H](NC(=O)[C@H](CCC(=O)OC(C)(C)C)NC(=O)[C@H](CCC(=O)OC(C)(C)C)NC(C)=O)C(C)C)C(C)C)C(=O)C(=O)NCC(=O)O (some centres unmarked) [Compound 56] (Ac-E(OtBu)E(OtBu)VVP[X3]G-OH)	101 to 999
C=CCOC(=O)CNC(=O)C(=O)C(CCC)NC(=O)[C@@H]1C[C@@H]2CCCC[C@@H]2N1C(=O)[C@@H](NC(=O)[C@@H](NC(=O)[C@H](CCC(=O)OC(C)(C)C)NC(=O)[C@H](CCC(=O)OC(C)(C)C)NC(C)=O)C(C)C)C1CCCCC1 (some centres unmarked) [Compound 58] (Ac-E(OtBu)E(OtBu)V[Chg][Oic][X3]G-OAll)	1000 to 10000
CCCC(NC(=O)[C@@H]1C[C@@H]2CCCC[C@@H]2N1C(=O)[C@@H](NC(=O)[C@@H](NC(=O)[C@H](CCC(=O)OC(C)(C)C)NC(=O)[C@H](CCC(=O)OC(C)(C)C)NC(C)=O)C(C)C)C1CCCCC1)C(=O)C(=O)NCC(=O)O (some centres unmarked) [Compound 59] (Ac-E(OtBu)E(OtBu)V[Chg][Oic][X3]G-OH)	101 to 999
C=CCNC(=O)C(=O)C(CCC)NC(=O)[C@@H]1CCCN1C(=O)[C@H](CCC(C)C)NC(=O)[C@@H](NC(=O)[C@H](CCC(=O)O)NC(=O)[C@H](CCC(=O)O)NC(C)=O)C(C)C (some centres unmarked) [Compound 67] (Ac-EEV[hLeu]P[X3]-NHAllyl)	101 to 999
C=CCNC(=O)C(=O)C(CCC)NC(=O)[C@@H]1CCCN1C(=O)[C@H](CCC(C)C)NC(=O)[C@@H](NC(=O)[C@H](CCC(=O)OC(C)(C)C)NC(=O)[C@H](CCC(=O)OC(C)(C)C)NC(C)=O)C(C)C (some centres unmarked) [Compound 68] (Ac-E(OtBu)E(OtBu)V[hLeu]P[X3]-NHAllyl)	1000 to 10000
CCCC(NC(=O)[C@@H]1c2ccccc2CCN1C(=O)[C@@H](NC(=O)[C@@H](NC(=O)[C@H](CCC(=O)O)NC(=O)[C@H](CCC(=O)O)NC(C)=O)C(C)C)C1CCCCC1)C(=O)C(=O)NCC(=O)O (stereo partly drawn) [Compound 69] (Ac-EEV[Chg][Tiq1c(1S)][X3]G-OH)	1000 to 10000
C=CCOC(=O)CNC(=O)C(=O)C(CCC)NC(=O)[C@@H]1c2ccccc2CCN1C(=O)[C@@H](NC(=O)[C@@H](NC(=O)[C@H](CCC(=O)O)NC(=O)[C@H](CCC(=O)O)NC(C)=O)C(C)C)C1CCCCC1 (stereo partly drawn) [Compound 71] (Ac-EEV[Chg][Tiq1c(1S)][X3]G-OAll)	101 to 999
CCCC(NC(=O)[C@@H]1CCCN1C(=O)[C@H](CC1CCCCC1)NC(=O)[C@@H](NC(=O)[C@H](CCC(=O)O)NC(=O)[C@H](CCC(=O)O)NC(C)=O)C(C)C)C(=O)C(=O)NCC(=O)O (some centres unmarked) [Compound 72] (Ac-EEV[Cha]P[X3]G-OH)	101 to 999
C=CCOC(=O)CNC(=O)C(=O)C(CCC)NC(=O)[C@@H]1CCCN1C(=O)[C@H](CC1CCCCC1)NC(=O)[C@@H](NC(=O)[C@H](CCC(=O)OC(C)(C)C)NC(=O)[C@H](CCC(=O)OC(C)(C)C)NC(C)=O)C(C)C (some centres unmarked) [Compound 74] (Ac-E(OtBu)E(OtBu)V[Cha]P[X3]G-OAll)	1000 to 10000
CCCOC(=O)CNC(=O)C(=O)C(CCC)NC(=O)[C@@H]1CCCCN1C(=O)[C@@H](NC(=O)[C@@H](NC(=O)[C@H](CCC(=O)OC(C)(C)C)NC(=O)[C@H](CCC(=O)OC(C)(C)C)NC(C)=O)C(C)C)C(C)C (some centres unmarked) [Compound 76] (Ac-E(OtBu)E(OtBu)VV[Pip][X3]G-OPr)	1000 to 10000
CCCOC(=O)CNC(=O)C(=O)C(CCC)NC(=O)[C@@H]1CCCCN1C(=O)[C@@H](NC(=O)[C@@H](NC(=O)[C@H](CCC(=O)OC(C)(C)C)NC(=O)[C@H](CCC(=O)OC(C)(C)C)NC(C)=O)C(C)C)C1CCCCC1 (some centres unmarked) [Compound 77] (Ac-E(OtBu)E(OtBu)V[Chg][Pip][X3]G-OPr)	1000 to 10000
CCCOC(=O)CNC(=O)C(=O)C(CCC)NC(=O)[C@@H]1CCCCN1C(=O)[C@@H](NC(=O)[C@@H](NC(=O)[C@H](CCC(=O)O)NC(=O)[C@H](CCC(=O)O)NC(C)=O)C(C)C)C1CCCCC1 (some centres unmarked) [Compound 78] (Ac-EEV[Chg][Pip][X3]G-OPr)	101 to 999
CCCC(NC(=O)[C@@H]1CCCCN1C(=O)[C@@H](NC(=O)[C@@H](NC(=O)[C@H](CCC(=O)O)NC(=O)[C@H](CCC(=O)O)NC(C)=O)C(C)C)C1CCCCC1)C(=O)C(=O)NCC(=O)O (some centres unmarked) [Compound 79] (Ac-EEV[Chg][Pip][X3]G-OH)	1 to 100
CCCC(NC(=O)[C@@H]1CCCCN1C(=O)[C@@H](NC(=O)[C@@H](NC(=O)[C@H](CCC(=O)OC(C)(C)C)NC(=O)[C@H](CCC(=O)OC(C)(C)C)NC(C)=O)C(C)C)C1CCCCC1)C(=O)C(=O)NCC(=O)O (some centres unmarked) [Compound 80] (Ac-E(OtBu)E(OtBu)V[Chg][Pip][X3]G-OH)	1 to 100
C=CCOC(=O)CNC(=O)C(=O)C(CCC)NC(=O)C(CC1CCCCC1)NC(=O)C(NC(=O)C(NC(=O)C(CCC(=O)O)NC(=O)C(CCC(=O)O)NC(C)=O)C(C)C)C1CCCCC1 (centres unmarked) [Compound 81] (Ac-EEV[Chg][Cha][X3]G-OAll; configuration not given here)	1 to 100
CCCC(NC(=O)C(CC1CCCCC1)NC(=O)C(NC(=O)C(NC(=O)C(CCC(=O)O)NC(=O)C(CCC(=O)O)NC(C)=O)C(C)C)C1CCCCC1)C(=O)C(=O)NCC(=O)O (centres unmarked) [Compound 82] (Ac-EEV[Chg][Cha][X3]G-OH; configuration not given here)	1 to 100
CCCOC(=O)CNC(=O)C(=O)[C@H](CCC)NC(=O)[C@@H]1C[C@@H](c2ccccc2)CN1C(=O)[C@@H](NC(=O)[C@@H](NC(=O)[C@H](CCC(C)=O)NC(=O)[C@H](CCC(=O)O)NC(C)=O)C(C)C)C1CCCCC1 [Compound 83] (Ac-E[X36]V[Chg][Pro(trans-4-Ph)][X1]G-OPr)	1 to 100
